From article PMC10726135
This is one part of the list. At the low end of the ranking the order means little. Measured with an extract: partners may take part in the binding.

Molecular target: T1, HNF4alpha8 (COS-7 nuclear extract) (UniProt P41235-5)
T1 sequence: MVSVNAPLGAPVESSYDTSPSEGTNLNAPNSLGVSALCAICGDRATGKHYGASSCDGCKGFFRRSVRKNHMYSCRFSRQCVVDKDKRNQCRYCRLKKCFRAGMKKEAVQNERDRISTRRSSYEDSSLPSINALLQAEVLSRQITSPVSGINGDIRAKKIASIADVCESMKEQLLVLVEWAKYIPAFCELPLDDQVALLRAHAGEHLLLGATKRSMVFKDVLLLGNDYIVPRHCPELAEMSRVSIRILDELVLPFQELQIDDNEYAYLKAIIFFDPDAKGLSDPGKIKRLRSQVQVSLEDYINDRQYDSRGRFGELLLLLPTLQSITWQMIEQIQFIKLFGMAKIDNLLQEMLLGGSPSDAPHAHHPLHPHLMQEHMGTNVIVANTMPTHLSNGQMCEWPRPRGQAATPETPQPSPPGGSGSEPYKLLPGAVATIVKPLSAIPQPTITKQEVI
Assay: protein-binding microarray
Settings: COS-7 nuclear extract on double-stranded Agilent 4x180k PBM; binding buffer, salt, pH and temperature not given; high values mean tight binding; double strand, one strand shown; sequences stand for … in …GCCTAGGGAGATTAGAGTATCGGTCGA

Row | Sequence | binding signal (log2 normalized intensity)
1 | TGCTGACCTTTGTTCACATTTGTGCTCAGC | 4.37
2 | TTGGACCACAGAGTGACCTGGTATTGCAAG | 2.41
3 | ACATGCCTATGACCGAGGGTTAAGCTCATG | 0.32
4 | CCTCTTTCAAGCCTGAACAAACATGAGGGA | -0.461
5 | ACTCCTACCACCAAAGAAAAAAGCCAATCT | -1.11
6 | CTTAGCAGTGGGAGACAGGCATTAACCCTT | 1.74
7 | GGAACAGTCCAGAGTCTGACAGAACTAAGC | -0.815
8 | CCATTAAATCTTCCCTCCTGTGAACTCGCG | 1.14
9 | GCCGTCCTCAGTGAATCACAGCAGCTTCAA | -1.25
10 | AGTAGGATTTCTAGTTAATATCTAAGATGT | 0.852
11 | ACATGCTGTCTAGGCCAGAGTTCACTTTCC | 2.76
12 | CAGTTTCCAGGGAGGAGAGAAGGGCTGAAG | -1.17
13 | ACTGCTTACCCTGCAGTGTGACCTTTGCCT | 8.52
14 | CCAGGAGCAGAAAGGAGGCAGAGACTGCCC | -1.32
15 | AGACAAAAGTCCGGAATTTCCTCCTGGCAG | -1.31
16 | GAGGAATGCTGGTAAACACTGAGCTTTCAT | -1.1
17 | TCCTCTCTCCCACAAGGGCAGCCCTGTTTA | -0.515
18 | GAGCCACTTCACTGGTGTGATCTTTTTTCT | 1.38
19 | TAGCCCTGAACAAACAGCTTCCAGAATAGC | -1.24
20 | TCTGGTGTTCTCTTGGCCAACAACTAGGGC | 0.427
21 | AGAGTGGCCTTTGGAATCAAACAGATGTAG | 3.03
22 | TTAACTGGAGATAACACAACCCCTACTGTA | 1.63
23 | GAGGTGTCCTGTAAATAGTGTGTCAGGGAA | 0.636
24 | GCTGCCAGAGGGTGGCAGCAGCAGGCAGGG | 2.08
25 | AAGTGACCCTGGTCTTTGCCCTTTCCTAGA | 3.98

Row | Sequence | binding signal (log2 normalized intensity)
26 | GTCGGGCGGACGGGGAACCCAGCAAACCTG | -1.47
27 | GCGAGAACTTACTTTTGGCCATCGCACGAG | -1.38
28 | GGAGAAGGAAAAAAATAGGAGACTGTCTTA | -1.29
29 | AGCTCCGACTCAGTGGGGGGGGGGGGGGGG | -1.33
30 | TATTTACTGTCCTCAAACTGTCACCTGCCC | 1.74
31 | TGGAGAGAATTCCCATCCCACTAGGTGGCG | -1.26
32 | CATTGGACCCTCCCAGCCAAACCCCACTCC | 5.25
33 | TAAAGATTATGAACTAATTTGTCTTTTCTC | -1.35
34 | ACATGAGGGACTGGGAAGAGAAGGTGAACT | 0.874
35 | CCAAGGGTATGTTTGTGATATTGTGAAATA | 1.65
36 | GTCCAAGATGGCAATGTTCCTGCTCTGTCA | -1.2
37 | CACCAATGATCAAAGGTTAGTCTTAGGACC | 3.87
38 | GCAAATGTGTCTTTTTTAGTCAGCATAGTT | 1.34
39 | TACTCATGTGGTCCTAAGACTAACCTTTGA | 7.11
40 | TCCTGGGAGAGAAAAGCAAGATTGGGAGCT | -1.1
41 | CCCATGCCCTTAGCCACTGCATGATAGGCC | -1.31
42 | GCACTTTGCACCTGGGCTGGAAAGGCCACC | 3.26
43 | ACAATGCCTTGTGTACTGAGCAGGGTCCAA | 3.88
44 | TCCTCTCCTACTTCTGTTTAAACTGATAAC | 0.76
45 | CCTATGGTCTGTTCACTTGCCAAGCCTAGT | -0.838
46 | AGAGTGATCTTTGGGCCATATTGACTAAAC | 1.12
47 | GATGGGGTCATGATAAGAGCAGAGACAGGC | -0.864
48 | CAGTAGGAGTTGGAACGGGGGCAAGGGTCA | 6.1
49 | GGCCATCTAGCTACAGGAGAACAAAGTTCA | 4.35
50 | CTAGTGATGTGGAAATCTGGACTCAGCAGA | 1.92

Row | Sequence | binding signal (log2 normalized intensity)
51 | ATCACTGAAGCGACCCCTCGAGGCAACCTT | 1.75
52 | GGAGTAGTCAAATTTGTCTAGCGCAAATGA | -1.38
53 | CCACATTCTGAGACTAAAGAGTACACAAAG | -1
54 | CAGGCGGAGCACACCAGGCCCTCGGCATCA | -1.16
55 | AAGTTCAACCTCATTATCTTCAGTCTAGAA | 0.29
56 | TGTCTACCCTTTTGCCCTTTGAGCTTCTGT | 5.93
57 | AGTAGATAACTTCAAGGAGCTCGGCGCCAG | -1.27
58 | TTGAGTCTGGTGTTCTCTTGGCCAACAACT | 0.272
59 | AGTCCAAATTCCTAACTATGGTTGATAAGG | 0.798
60 | ATTTCTAGGTTTGATCTTTGCCCTACAATT | 6.36
61 | ACCCCTTGCAAATAAGTCCGGCAGAGCTAT | -1.37
62 | ACTCAGGTCATCAGGACTCTAACTGGCTTT | -0.45
63 | ATCTCGTGTCTTTCATCTCTGTAAACTGGC | 1.02
64 | GACCTCTGCCCTTCCACCCACTTTATCTTC | 3.59
65 | ACAAGTGAAAGTCTAAAGTTCAGTGAGATT | 3.78
66 | TAACATTGCTGACCCCCTACATAGAGAGCA | 3.08
67 | ACTTCTTTGAAGAAGACAAAACAGCGTACT | -1.17
68 | AGAGCTCTGTGCCTTTCTCTGCAGCTTAAA | -1.43
69 | CTTAGAAAGAGGGTGTAAGAGTGAACTCTG | 2.79
70 | GTGACTGAAGTCCAACCCTCCGTTTCTCTG | 1.39
71 | AGGCTTAGGCCAGGCGGAGCACACCAGGCC | -1.41
72 | GGGGCCTAGCTTGTAAAGGGTAATCTGCTT | -0.484
73 | GCCTCCTCCATCTCCTCCACCAGCTTGCTG | -1.28
74 | GACCCATCCCTCAGGGTCCATATCCAATAA | 2.61
75 | CTCAGCTCCTAAAGGCAGCCCCTTATCAGG | -1.3

Row | Sequence | binding signal (log2 normalized intensity)
76 | AGCAAACACAAACTATGACCTTTGAAACTT | 7.82
77 | ATTCTTTCTGATAAGAGCATTTTTGTATGC | 0.989
78 | ATCTTGCTGTACACTCAGGTCTTTCTGGAG | 0.683
79 | CTCCGCCTCCCTCCCCCTTTCTCCGCTAAG | 3
80 | CTTTCTCCTCCCCTCCCCTCCCCCCACTCA | 7.09
81 | CTCTGCCACTGGTTTGCACACACCAAAGCC | -1.15
82 | ACTGACCTTTGAGAGTCAACACTGAAATAG | 2.06
83 | AGCCTTGCAGATAAGCCACGAGCCTGCCTG | -1.32
84 | GGGATTTGTACAAGTGATTGGATCTGAGAT | 0.548
85 | CTTATGCTGAATTCCCATCTAAGACTTTAT | -0.77
86 | AGTTCAACCATACACACATTCCAATCTTCT | -0.806
87 | AAGTTGAATTCTTGACTTTGGACTTTCAAA | 6.12
88 | AAGTACAAAAGAGGCTTCCTGGGCCAGGTC | -0.87
89 | TGTATTCATGAGCATGCTTCCCAAATGGAG | -1.41
90 | CAGTTTTTGTTTGCACCTCACAGGAAGAAC | 0.819
91 | TGCATAGACTGCCCAGAATTTCCTGTTAGA | -1.18
92 | CGCTGTTGATGGGCAGCGCGGCGCGCTGGG | -1.38
93 | CAAATTTGCCTTGTCCTTAGACAGTAACCC | 1.8
94 | CCTGCCCATCCCGTGGACTCTGCCTGCCCT | 3.54
95 | CTGAAGGATATTGGCAACGCCTCAGAAGCA | -1.34
96 | ACCCCTCCGGCAGCGGCCGGAAAAAGTGAG | 1.73
97 | CCAAGCCACCTTCCCGGCCTGGCCACTCCG | -1.26
98 | ATAGTTCTCATGGCTCATTTTGGGCATCTG | -0.126
99 | TTAGCTTGGACAGAGTTTGTGGTGTTTGTG | 1.9
100 | TATGCACTCTCACCTTGGGGGCTGCTGGGG | -1.16

Row | Sequence | binding signal (log2 normalized intensity)
101 | TATTGTGAAGTGATAGCTAATGGAAAGCTT | -1.37
102 | GTGAACCTTTGTCCCGTTATGGCACCAAGA | 1.55
103 | TCCTTTGTTTAGACTTGGGGCCAAAAAATT | 1.21
104 | CCAAGACCAAGCAAGCCAGTCAGAATCTCT | -1.24
105 | CTCATGTGGTCCTAAGACTGACCTTTGATC | 10.6
106 | TGATGAAACTCCTTCCCTTTCATGTTGAAC | 1.78
107 | TAGAAGCTGAGCAGCAATCAGCTCCTCAAC | -1.37
108 | AATCCTCCCACCTCAGCATCCCAAGTAGCT | 1.44
109 | TGCTCGGCATCCCTGCCGTGGCTGGAACTC | -1.29
110 | CAACATGTGGGCAAATAGGATTAGGAAACC | -1.28
111 | AAACGTTCTTCTCTAACCCTCCTTTTAATC | 1.33
112 | TGCCCCCGATAGCACTATTAGTCTTAGATT | 1.95
113 | GATTTTCAGGTTCCCCAGTGAGGATGTGTG | 1.53
114 | GTAACTATGGGGCAAAGTGCAAGCAAACAT | 3.12
115 | CCAGTTAATGCTGAACTTTAGCTCACTGTT | 1.91
116 | CAGCCCTCCTCTCTGTAGTCCTCAGCAATA | 0.967
117 | TGTGTACGGACGCATCTGTCGGCTCTCGTA | -1.34
118 | GACAGATAAGAAGGGGTCAGACCAGACAGC | 0.858
119 | ACCAAGGACAAACTGAGGAGGACATACTCC | -1.32
120 | GACAGAAGCAGGACTTAAACACCAGTACTC | -1.48
121 | CGGAGGGCGGGGCGGGGCAGCAGGGAAGAG | -1.4
122 | GACGTTCTGCCCCTTATCTTCTGGCCACCT | 2.08
123 | AGCTAAATAAATAACTCTAAGAAATAGGTT | -1.45
124 | AAAGTTCAAGTCATAACTGGATGGTGCCTA | 0.211
125 | CTGGCAGAATTCCTTCTTGCTTAGGATAGG | -1.28

Row | Sequence | binding signal (log2 normalized intensity)
126 | TAGACCTGGCCTCGGGGAGCTGTGGGCCTC | -1.02
127 | TAGGGACCGCAAATAAAAGAGGGCCCCATC | -1.31
128 | GTGACCTCTTATCTCATCCTGTGACCAAGA | 1.52
129 | CAGAGACGGCAAGCCATAGTTAACCCAGAA | -1.21
130 | GGTCATTTGTTTTTACAGACAGGCATGACA | 0.0933
131 | TCCACACCCCAGCCTGCCCTCCTAGGGACA | 3.34
132 | AAGCAATGCTGGGGACCTTTGGCCTTTACC | 5.77
133 | ATGAGGCCCCAGTGATGACAGCAAGATAAT | -1.3
134 | TCTCTCCCTCCTCCTTTTTTTCCCCTCCCT | 4.47
135 | CACTCAGGCACTGGGATCCAAAGTTCATGG | 4.52
136 | GCCAGTGTGGCTAACAATATGGGGTGGGGA | -1.31
137 | TAAATAGTGACAAATTGTATAGTTGCTGAT | -0.564
138 | GGAGCATGATGAAATTTCCTCTTACCACAT | -0.847
139 | TTGTTTTAAGTTCATAGGTCCTCTTGGAAG | 1.63
140 | CAGCCAGCCTGAGGCAGTTGGAAAATATTT | -1.3
141 | GAATAGTTAAGTAACGTGTCAGAGGTCACT | 3.94
142 | TGCTCCAGCCAGAGGCCTTATCTGGCCGCC | -1.33
143 | TGTGTACTCTATCCAGTAGAGGGCATAGCA | 1.9
144 | CCCCTTCTGAGTCTCCAATGTCCATTATAT | 1.52
145 | ACAAGAGGAATGTTCATTCATTCACCTTTC | 0.765
